Measurements as given in PubChem BioAssay AID493208 (National Center for Advancing Translational Sciences (NCATS), 2011).
The campaign covered roughly 44,000 compounds. About 340 (0.77%) were called active. Not shown: some 5% with an inconclusive outcome. Calls come from the whole dose curve; as a rule, active = well fitted inhibition curve with a large enough effect; inconclusive = small, poorly fitted or top-dose-only effect; inactive = flat fitted curve, though single readings scatter. Some of the results follow.

Test: Acumen qHTS Assay for Inhibitors of the mTORC1 Signaling Pathway in MEF (Tsc2-/-, p53-/-) Cells: Sytravon;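 note: plate controls were DMSO for no effect and rapamycin for full effect; nearly all actives have a fitted effect of over 50% in size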
Settings: phospho-rpS6 immunofluorescence/PI, 24 h; series mostly up to 38.3 µM; activity change, negative = inhibition: at the top concentration
How it was run: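 Cell-based qHTS: Tsc2-/- p53-/- MEF, 24 h cpd, 37 °C; fix/perm, anti-phospho-S6 Alexa-488 + PI; Acumen 488 nm scan; pS6/PI ratio, % positive cells; rapamycin 7.5 nM = inhibition ref; PI count = viability.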

SMILES | activity change, negative = inhibition
COc1ccc(S(=O)(=O)NCC(c2ccco2)N2CCOCC2)cc1OC (stereo unspecified) | inactive: -3.95%
Cc1ccc(NC(=O)CCc2c(C)nc3cc(-c4ccccc4)nn3c2C)cc1F | inactive: 1.9%
COc1ccc(-c2nc3c(C#N)c[nH]n3c2NC2CCCC2)c(OC)c1 | inactive: 3.29%
COCCCNc1oc(-c2ccc(COc3ccc(Cl)cc3)o2)nc1C#N | inactive: -1.51%
COc1ccc(CNC(=O)C2CCN(c3nc4ccccc4[nH]3)CC2)cc1OC | inactive: -14.7%
O=C(Nc1sc2c(c1C(=O)NCC1CCCO1)CCC2)c1cc(=O)c2ccccc2o1 (stereo unspecified) | inactive: 7.65%
CCCCCNC(=O)CCCCCn1c(=O)[nH]c2ccsc2c1=O | inactive: 2.63%
CCn1cc(C(=O)OCC(=O)Nc2cccc(C(C)=O)c2)c(=O)c2ccc(C)nc21 | inactive: 2.17%
CCOC(=O)c1c(S(=O)(=O)N2CCCC(C(=O)Nc3cccc(C)n3)C2)c(C)n(C)c1C (stereo unspecified) | inactive: -4.84%
COc1ccc(Cn2c(=O)c3oc4ccccc4c3n(Cc3ccc(Cl)cc3)c2=O)cc1 | inactive: -2.8%
CCOC(=O)c1c(C)[nH]c(C)c1S(=O)(=O)N1CCCC(C(=O)N2CCN(c3ccccc3)CC2)C1 (stereo unspecified) | inactive: -2.06%
CCOCCc1nn2c(=O)cc(COC(=O)C3CCCCC3)nc2s1 | inactive: -13%
Cc1cccn2c(=O)c3cc(C(=O)NC(C)c4ccccc4)c(=N)n(CCCO)c3nc12 (stereo unspecified) | inactive: -13.8%
Cc1ccc2c(=O)cc(C(=O)Nc3cccc(C(F)(F)F)c3)oc2c1C | inactive: 4.98%
COC(=O)c1ccc(OCC2c3cc(OC)c(OC)cc3CCN2C(=O)c2ccc(F)cc2)cc1 (stereo unspecified) | inactive: 8.75%
O=C(Cn1nnc(-c2ccccc2Cl)n1)Nc1ccc(Br)cc1 | inactive: 8.76%
O=C(NCCCN1CCN(c2ccc(F)cc2)CC1)c1ccc2nc(Cc3ccccc3)oc2c1 | inactive: -3.91%
Cc1ccccc1Cn1c(CN2CCC(C(=O)NCCc3ccccc3)CC2)cc2ccccc21 | inactive: -2.58%
CCN(CC)CCCNC(=O)c1nn(C)c2c1CS(=O)(=O)c1ccccc1-2 | inactive: 2.74%
CCC(=O)Nc1cccc(C(=O)OCc2cc(=O)n3nc(CC)sc3n2)c1 | inactive: 0%
COc1ccc2c(c1)c1c(c(=O)n(CCc3ccccc3)c(=O)n1Cc1ccc(F)cc1)n2C | inactive: 2.75%
COc1ccc(NC(=O)c2c(-c3ccc(C)cc3)nnc3ccccc23)c(OC)c1 | inactive: -2.84%
CCN(CC)c1nc2ccccc2nc1C(=O)Nc1cccc(C(C)=O)c1 | inactive: -12.2%
Cc1ccc2sc(NC(=O)c3ccc4c(c3)OCCO4)nc2c1C | inactive: -1.28%

SMILES | activity change, negative = inhibition
COc1ccc2c(c1)c1c(c(=O)n(-c3ccc(F)c(Cl)c3)c(=O)n1Cc1ccccc1C)n2C | inactive: -7.11%
CCSC1=NC2(CCN(C(=O)NC3CCCCC3)CC2)N=C1c1ccc(Cl)cc1 | inactive: -0.278%
Cc1ccc(NC(=O)c2sc3nc4c(cc3c2N)CN(Cc2ccccc2)CC4)cc1 | inactive: -9.73%
CCN1C(=O)c2ccccc2Sc2ccc(NC(=O)c3ccc(Cl)cc3)cc21 | inactive: -1.86%
Cc1oc2ncn(C)c(=O)c2c1C(=O)N1CCN(c2ccccc2F)CC1 | inactive: -12.4%
CCc1nn(Cc2ccc(Cl)cc2)c(=O)c2cc3cc(C)ccc3n12 | inactive: -0.219%
Cc1cccc(NS(=O)(=O)c2ccc3c(c2)C(C)(C)C(=O)N3C)c1 | inactive: -8.2%
O=C(CN1C(=O)COc2ccc(S(=O)(=O)N3CCCC3)cc21)N1CCN(c2ccccc2)CC1 | inactive: 0.371%
O=C(CSc1ncc2c(n1)-c1ccc(Cl)cc1N(Cc1ccccc1)S2(=O)=O)Nc1ccc(F)c(F)c1 | inactive: -10%
COc1ccc2c(Sc3ccccc3)c(C(=O)NCCc3ccc(Cl)cc3)[nH]c2c1 | inactive: -3.92%
CCOC(=O)C1CCCN(CC(=O)N2CCCc3c2c(=O)oc2ccc(OCc4ccccc4)cc32)C1 (stereo unspecified) | inactive: -7.26%
COc1cc(OC)cc(C(=O)Nc2cc(-c3nc4cc(Cl)ccc4o3)ccc2Cl)c1 | inactive: 2.29%
CCN1CCN(CCCNC(=O)c2cc3c(s2)-c2ccccc2OC3)CC1 | inactive: -19.3%
O=C(NCc1ccc2c(c1)CCN2C(=O)c1ccccc1)c1cc2ccccc2[nH]1 | inactive: -3.83%
CCc1ccc(NC(=O)c2sc3ncnc(N(C)C4CCCCC4)c3c2C)cc1 | inactive: 0.686%
CC(=O)C1=C(c2ccc(C)cc2)N(C(C)=O)n2c(nnc2C2CCCCC2)S1 | inactive: 0.263%
CCOc1ccc(C2C(C(N)=O)=C(C)Nc3nc(SCc4ccccc4)nn32)cc1 (stereo unspecified) | inactive: 2.97%
CCCCNC(=O)CSc1nc2ccccc2nc1Cc1ccc(C)cc1 | inactive: 0.909%
COc1cccc(CN2C(=O)c3ccccc3Sc3ccc(C(=O)N(C)Cc4ccccc4)cc32)c1 | inactive: -10.7%
O=C(c1cccs1)c1cn(CCOc2ccccc2F)c2ccccc12 | inactive: 3.62%
COc1cccc2cc(-c3nc(Nc4cccc(C)c4)sc3C)c(=O)oc12 | inactive: -11.7%
CC(C)c1ccc(S(=O)(=O)c2nnn3c2nc(N2CCN(C)CC2)c2sccc23)cc1 | inactive: -8.53%
COc1cc(C2c3c(-c4ccccc4O)n[nH]c3C(=O)N2CCO)ccc1OCc1ccccc1 (stereo unspecified) | inactive: -2.89%
COc1cccc(CNC(=O)c2ccc3nc(-c4ccc(F)cc4)c(-c4ccc(F)cc4)nc3c2)c1 | inactive: -6.76%

SMILES | activity change, negative = inhibition
CCOC(=O)c1ccccc1NC(=O)c1c2c(nc3ccccc13)C(=O)N(C1CCCCC1)C2 | inactive: 0.0596%
COc1ccc(C(=O)Nc2nc3nc(C)c(Cc4ccccc4)c(=O)n3[nH]2)cc1OC | inactive: -12.6%
Cc1ccc(CNC(=O)COCc2cc(-c3cccs3)on2)cc1 | inactive: 6.97%
CCOc1ccc(CNC(=O)C2CCN(S(=O)(=O)N3CCC(C)CC3)CC2)cc1OC | inactive: 4.99%
CC1=C(C(=O)Nc2cccnc2)C(c2cccc(Br)c2)n2nc(SCc3ccccc3)nc2N1 (stereo unspecified) | inactive: -1.12%
Cc1cccc(CNS(=O)(=O)c2ccc(-c3cnc(C4CC4)o3)cc2)c1 | inactive: 14.3%
CCCc1cc(=O)n2[nH]c(NC(=O)c3ccc(C(C)(C)C)cc3)nc2n1 | inactive: 2.46%
CC(=O)c1cccc(NC(=O)CN2C=NS(=O)(=O)c3ccc(C)cc32)c1 | inactive: -2.04%
CC1=C(C(=O)Nc2ccccc2C)C(c2ccncc2)n2nc(SCc3ccccc3Cl)nc2N1 (stereo unspecified) | inactive: 3.25%
COc1ccc(S(=O)(=O)Nc2cccc(-c3ccc(N4CCC(C)CC4)nn3)c2)cc1OC | inactive: -5.77%
Cc1cccc(-c2noc(-c3ccccc3NC(=O)C3CC(=O)N(c4ccccc4C)C3)n2)c1 (stereo unspecified) | inactive: 0.217%
CCn1c(=O)c2cc(C(=O)Nc3cc(OC)c(OC)c(OC)c3)sc2c2ccccc21 | inactive: -10.5%
Cn1ccc2cc(S(=O)(=O)N3CCCC(C(=O)NCc4ccccc4)C3)ccc21 (stereo unspecified) | inactive: -1.97%
O=C(COc1ccc(F)cc1)OCc1cc(=O)n2nc(C3CCCCC3)sc2n1 | inactive: 2.96%
Cc1cc(-c2ccc(C)c(S(=O)(=O)NC(c3cccs3)C(C)C)c2)on1 (stereo unspecified) | inactive: -7.37%
O=C(NCCS(=O)(=O)N1CCN(c2ccccc2)CC1)C1CC(=O)N(c2ccc(F)cc2)C1 (stereo unspecified) | inactive: 0.463%
COc1ccc(NC(=O)CCSc2nc(-c3ccc(OC)cc3)cc(C(F)(F)F)n2)cc1 | inactive: -0.0207%
CCc1nnc(SCc2c(F)cccc2Cl)c2cc3sccc3n12 | inactive: -2.12%
CC(C)CCNC(=O)c1ccc2c(c1)NC(=O)C(CS(=O)(=O)Cc1ccc(F)cc1)N2 (stereo unspecified) | inactive: 3.74%
Cc1ccc(NC(=O)Cn2cc(C(=O)C3CC3)c3ccccc32)c(C)c1 | inactive: -0.324%
CC1=C(C(=O)N2CCN(c3cc(C)ccc3C)CC2)C2(CCC(C)CC2)OC1=O (stereo unspecified) | inactive: -11.4%
COc1ccc(C(C(=O)NCc2ccccc2)N(C(=O)Cn2nnc3ccccc32)c2cccc(OC)c2)cc1 (stereo unspecified) | inactive: -3.8%
CCOC(=O)c1cccc(NC(=O)CCc2nc3cccnc3n2-c2ccccc2)c1 | inactive: -22.6%
CCOc1ccc(NC(=O)C2(c3cccs3)CCOCC2)cc1 | inactive: 3.28%

SMILES | activity change, negative = inhibition
Cc1cc(C)c2sc(NC(=O)c3ccc(S(=O)(=O)N4CCCC4)cc3)nc2c1 | inactive: 8.42%
COc1ccccc1C(=O)Nc1nc2nc(C)cc(=O)n2[nH]1 | inactive: 0.999%
CCOC(=O)c1c(C)oc2ccc(N(C(=O)c3ccncc3)S(=O)(=O)c3ccc(CC)cc3)cc12 | inactive: -11.2%
COc1ccc(OC)c(S(=O)(=O)Nc2ccc3c(c2)n(C)c(=O)n3C)c1 | inactive: -20.1%
O=C(CN1C(=O)COc2ccc(S(=O)(=O)NC3CCCC3)cc21)Nc1ccc(Cl)cc1F | inactive: -8.11%
CCOC(=O)c1c(C)[nH]c(CCC(=O)Nc2cc(Cl)ccc2OC)c1C | inactive: -17.7%
CCc1ccc(NC(=O)c2nc3nc(C)cc(C(F)F)n3n2)cc1 | inactive: -8.27%
CN(C)S(=O)(=O)N(CC(=O)Nc1ccc(C(F)(F)F)cc1)c1ccccc1 | inactive: 0.291%
Cc1ccc(OCCSc2nc3ccc(NC(=O)c4cccs4)cc3s2)cc1 | inactive: -9.22%
Cc1ccc(S(=O)(=O)N2CC=C(c3c(C)n(CC(=O)N4CCCC4)c4ccccc34)CC2)cc1C | inactive: -12.4%
Cc1sc(-n2cccc2)c(C(C)NC(=O)Nc2cccc(C(F)(F)F)c2)c1C (stereo unspecified) | inactive: -25.9%
COc1cc(OC)cc(C(=O)NCCc2csc3nc(-c4ccccc4F)nn23)c1 | inactive: 1.39%
CCOc1cccc(C(=O)N(Cc2ccc(C)o2)C2CCS(=O)(=O)C2)c1 (stereo unspecified) | inactive: 4.68%
COc1cccc(CNC(=O)c2cc(-c3ccc(Cl)cc3)n[nH]2)c1 | inactive: -7.21%
O=C(CCC(=O)N1CCSc2ccccc21)Nc1ccc(Cl)cc1 | inactive: 1.56%
CCC(CC)c1nn2c(=O)cc(COc3ccc(NC(=O)c4cccc(C)c4)cc3)nc2s1 | inactive: -20.4%
COc1ccc(CNC(=O)c2ccc3c(c2)N(Cc2cc(C)ccc2C)C(=O)CS3)cc1 | inactive: -6.79%
COc1ccccc1CNS(=O)(=O)c1cc(Br)cc2c1N(C(=O)C1CC1)CC2 | inactive: -1.54%
COc1ccc(CNc2nc(-c3ccc(Cl)cc3)nn2S(=O)(=O)c2ccc(C)cc2)cc1 | inactive: 4.48%
O=c1cc(COc2ccc(Cl)cc2Cl)nc2scc(-c3ccccc3)n12 | inactive: 1.49%
COc1ccccc1OCC(=O)N(Cc1ccco1)Cc1ccccc1F | inactive: -3.13%
CC(CNC(=O)c1ccc2c(c1)nc1n2CCCCC1)c1ccccc1 (stereo unspecified) | inactive: -2.51%
CCOc1ccc(CC(=O)NC2CC(=O)N(c3cccc(F)c3)C2)cc1 (stereo unspecified) | inactive: -3.1%
Cc1ccc(C2C(=O)N(C3CCC(C)CC3)CC(=O)N2C2CCCC2)cc1 (stereo unspecified) | inactive: 2.83%
